{"source": "the supplement of paper PMC3334620", "note": "Over roughly 33,000 sequences, “E-score (-0.5 to 0.5)” has its median near -0.035; the highest 2% begin near 0.35. The list shows a part of the results."}
{"biological_target": "T1, Pdr3 (UniProt P33200)", "T1 sequence": "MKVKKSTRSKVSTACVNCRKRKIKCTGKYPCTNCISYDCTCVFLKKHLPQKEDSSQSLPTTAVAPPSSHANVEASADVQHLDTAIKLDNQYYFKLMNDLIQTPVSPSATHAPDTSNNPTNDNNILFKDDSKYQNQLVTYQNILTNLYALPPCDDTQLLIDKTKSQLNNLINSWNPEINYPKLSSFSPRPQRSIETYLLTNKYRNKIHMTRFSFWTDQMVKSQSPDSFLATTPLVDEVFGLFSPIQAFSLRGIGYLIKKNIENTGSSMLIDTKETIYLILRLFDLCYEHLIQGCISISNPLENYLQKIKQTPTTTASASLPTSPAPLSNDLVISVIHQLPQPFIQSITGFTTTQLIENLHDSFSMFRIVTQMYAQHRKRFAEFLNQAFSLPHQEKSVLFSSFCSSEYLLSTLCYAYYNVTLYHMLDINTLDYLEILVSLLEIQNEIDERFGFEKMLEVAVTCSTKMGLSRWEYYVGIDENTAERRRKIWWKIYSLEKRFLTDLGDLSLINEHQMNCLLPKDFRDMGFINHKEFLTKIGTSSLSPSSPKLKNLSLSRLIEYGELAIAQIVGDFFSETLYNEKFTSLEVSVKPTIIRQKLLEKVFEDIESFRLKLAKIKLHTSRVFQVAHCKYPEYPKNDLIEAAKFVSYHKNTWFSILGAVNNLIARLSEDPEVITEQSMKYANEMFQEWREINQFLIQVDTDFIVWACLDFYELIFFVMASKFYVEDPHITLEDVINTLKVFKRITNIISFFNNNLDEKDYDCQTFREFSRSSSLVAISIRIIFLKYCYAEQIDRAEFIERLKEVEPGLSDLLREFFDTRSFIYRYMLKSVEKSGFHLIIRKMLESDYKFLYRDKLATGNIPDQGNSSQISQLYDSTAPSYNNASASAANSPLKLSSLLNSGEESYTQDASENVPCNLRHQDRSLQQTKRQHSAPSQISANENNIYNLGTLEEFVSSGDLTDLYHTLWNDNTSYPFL", "assay": "PBM E-score (8-mer binding enrichment) (E-score (-0.5 to 0.5)); higher = stronger / more preferred TF binding; most listed sequences are background and not binding sites", "settings": "protein concentration: 200 nM; construct: GST-full length", "procedure,_shortened": "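PURExpress in vitro transcription/translation supplied GST-tagged yeast transcription factors, either full-length or DNA-binding domain. Applied at about 100-200 nM to universal all-10-mer Agilent arrays double-stranded by primer extension, the bound protein was detected with fluorescent anti-GST. E-scores, modified Wilcoxon-Mann-Whitney statistics, were given by the Universal PBM Analysis Suite to ungapped eight-base words pooled with their reverse complements after masliner normalisation.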"}
{"sequence": "ACGTACCT", "PBM E-score": -0.31}
{"sequence": "CCTCACGC", "PBM E-score": 0.0488}
{"sequence": "ACGCATGA", "PBM E-score": -0.0808}
{"sequence": "CTCAGCTA", "PBM E-score": -0.217}
{"sequence": "AGAAACTA", "PBM E-score": -0.168}
{"sequence": "TATGAGAA", "PBM E-score": -0.08}
{"sequence": "AGGAACAT", "PBM E-score": -0.186}
{"sequence": "TACAAAAA", "PBM E-score": -0.149}
{"sequence": "AACATTAG", "PBM E-score": -0.286}
{"sequence": "CGGGCCGC", "PBM E-score": 0.146}
{"sequence": "AGCAGGCG", "PBM E-score": -0.00937}
{"sequence": "GACGTTGA", "PBM E-score": -0.0736}
{"sequence": "GCACAGGC", "PBM E-score": 0.00512}
{"sequence": "CAGACGGC", "PBM E-score": 0.0381}
{"sequence": "ATAAGACG", "PBM E-score": -0.156}
{"sequence": "ACCGCGCG", "PBM E-score": 0.397}
{"sequence": "TATCCTGA", "PBM E-score": -0.107}
{"sequence": "ATTACCAG", "PBM E-score": -0.0103}
{"sequence": "ACATCTCA", "PBM E-score": -0.0808}
{"sequence": "TTCTAGAA", "PBM E-score": -0.0933}
{"sequence": "ACAACTGG", "PBM E-score": -0.00479}
{"sequence": "ACGGGTCC", "PBM E-score": 0.186}
{"sequence": "CGTCACAC", "PBM E-score": -0.0834}
{"sequence": "CCCTCCAC", "PBM E-score": -0.139}
{"sequence": "CAGCAGGG", "PBM E-score": -0.135}
{"sequence": "GATATCCA", "PBM E-score": -0.00988}
{"sequence": "ATCAAAAA", "PBM E-score": 0.0164}
{"sequence": "CGTGACTC", "PBM E-score": -0.279}
{"sequence": "GCCTTATA", "PBM E-score": 0.0222}
{"sequence": "AATGATCT", "PBM E-score": -0.15}
{"sequence": "CGGATGGA", "PBM E-score": 0.256}
{"sequence": "ACAACTCG", "PBM E-score": 0.0266}
{"sequence": "ATCGAACC", "PBM E-score": 0.108}
{"sequence": "ACAGTACC", "PBM E-score": -0.129}
{"sequence": "CCAAAAGC", "PBM E-score": -0.0476}
{"sequence": "CAGGCATC", "PBM E-score": -0.0951}
{"sequence": "AGCATACC", "PBM E-score": -0.0406}
{"sequence": "AGGATTAT", "PBM E-score": -0.184}
{"sequence": "CACAGTCA", "PBM E-score": -0.126}
{"sequence": "ACGTACCC", "PBM E-score": 0.0101}
{"sequence": "CGTTTCAG", "PBM E-score": 0.126}
{"sequence": "AGCATGAG", "PBM E-score": -0.163}
{"sequence": "CATTTACC", "PBM E-score": -0.0378}
{"sequence": "CGTCAAAG", "PBM E-score": -0.139}
{"sequence": "CCTTATAA", "PBM E-score": 0.0389}
{"sequence": "TCAGCGGA", "PBM E-score": 0.335}
{"sequence": "GTGTGGGA", "PBM E-score": -0.00678}
{"sequence": "CATTCATC", "PBM E-score": -0.0626}
{"sequence": "CGAAAACG", "PBM E-score": -0.0052}
{"sequence": "AATATGTG", "PBM E-score": 0.121}
{"sequence": "GGCTGATA", "PBM E-score": 0.189}
{"sequence": "AGGAGCGC", "PBM E-score": -0.0646}
{"sequence": "ACGAGCGG", "PBM E-score": 0.107}
{"sequence": "GTACGGAC", "PBM E-score": 0.278}
{"sequence": "GAATTACC", "PBM E-score": -0.065}
{"sequence": "GGCTGCCC", "PBM E-score": 0.092}
{"sequence": "ATCGTGGC", "PBM E-score": -0.147}
{"sequence": "GGGGATTA", "PBM E-score": 0.162}
{"sequence": "TGCAAAAA", "PBM E-score": -0.202}
{"sequence": "ATTTCTCG", "PBM E-score": 0.216}
{"sequence": "CCGGTTGA", "PBM E-score": 0.29}
{"sequence": "CGAGTATC", "PBM E-score": 0.0267}
{"sequence": "GCGCCAGC", "PBM E-score": -0.186}
{"sequence": "ACAGGGGG", "PBM E-score": -0.284}
{"sequence": "AAATGGAT", "PBM E-score": -0.161}
{"sequence": "ATCCCGGA", "PBM E-score": 0.417}
{"sequence": "CAACCAGC", "PBM E-score": -0.134}
{"sequence": "AGGTGGAG", "PBM E-score": -0.25}
{"sequence": "CGATGCGA", "PBM E-score": 0.0866}
{"sequence": "GAAACAAA", "PBM E-score": 0.0961}
{"sequence": "CTAGCTAG", "PBM E-score": -0.154}
{"sequence": "AACCAGGT", "PBM E-score": -0.196}
{"sequence": "ACTTTCGC", "PBM E-score": -0.182}
{"sequence": "AGGGCCGC", "PBM E-score": 0.0126}
{"sequence": "AACCGCGC", "PBM E-score": 0.231}
{"sequence": "GAAGTTCA", "PBM E-score": 0.0399}
{"sequence": "AATAGCAT", "PBM E-score": -0.00437}
{"sequence": "AGCTCTGA", "PBM E-score": -0.191}
{"sequence": "AGACGACC", "PBM E-score": -0.121}
{"sequence": "AAAGAAAG", "PBM E-score": -0.18}
{"sequence": "AGCGACCT", "PBM E-score": -0.059}
{"sequence": "GCTAGTCC", "PBM E-score": -0.141}
{"sequence": "AATTCTCA", "PBM E-score": -0.142}
{"sequence": "CACCTGCC", "PBM E-score": 0.00218}
{"sequence": "AGATGTAT", "PBM E-score": -0.117}
{"sequence": "ACAGAATC", "PBM E-score": -0.102}
